Laboratory results published in the RNAGym collection of RNA variant scans (doi:10.1073/pnas.2313332121).
Variants at the floor of the assay are shown more often than the library holds them.

B1: TPR 5TU (parent)
chain: GGAUCUUCUCGAUCUAACAAAAAAGACAAAUCUGCCACAAAGCUUGAGAGCAUCUUCGGAUGCAGAGGCGGCAGCCUUCGGUGGCGCGAUAGCGCCAACGUUCUCAACUAUGACACGCAAAACGCGUGCUCCGUUGAAUGGAGUUUAUCAUG

Variants of: B1
Test: polymerase ribozyme fitness, log enrichment relative to wild type (log ratio); higher = more active; in vitro selection for triplet polymerase activity
How it was run: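 Each subunit of a heterodimeric triplet polymerase ribozyme was mutagenized into a library by PCR, transcribed, and subjected to one round of in vitro selection, run in triplicate. Libraries were annealed with a biotinylated primer, the partner subunit and triplets, incubated frozen at −7 °C, and extended constructs were gel-excised, captured on streptavidin beads and recovered by RT-PCR. Input and output libraries were sequenced on Illumina, keeping genotypes with ≥10 input reads and ≥1 read per output. Fitness is log base 2 of genotype enrichment divided by wild-type enrichment, from inverse-variance-weighted replicate averages.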

| Variant | polymerase ribozyme fitness (log ratio) |
| --- | --- |
| A29C C51U G59A C87A C96A U111G U145A U151A | ≤ -4.2 |
| A29C C54U C85U | ≤ -4.2 |
| A29C C57U U78G G141A | ≤ -4.2 |
| A29C C69U U146A | ≤ -4.2 |
| A29C C85G C96A G133U U151G | ≤ -4.2 |
| A29C C96G | -4.15 |
| A29C C131U G140U | ≤ -4.2 |
| A29C G34C G58C | ≤ -4.2 |
| A29C G46C C79G A91U A107G U145G | ≤ -4.2 |
| A29C G50C C79G A115U | ≤ -4.2 |
| A29C G58C C69U G71U | ≤ -4.2 |
| A29C G59A C131U | ≤ -4.2 |
| A29C G59C A89U A97G G126A | ≤ -4.2 |
| A29C G74C | ≤ -4.2 |
| A29C G88A | ≤ -4.2 |
| A29C U31G C87A U139G | ≤ -4.2 |
| A29C U33G G34U G50C G84C G100C C108A A113U G141U | ≤ -4.2 |
| A29C U44A C95G C114A | ≤ -4.2 |
| A29C U55A A91C C93G | ≤ -4.2 |
| A29G A30G U55A G92U C116A A150C | ≤ -4.2 |
| A29G A30U C85A A107U C118G | ≤ -4.2 |

| Variant | polymerase ribozyme fitness (log ratio) |
| --- | --- |
| A29G A30U U45A G68C C85A A91G A106U | ≤ -4.2 |
| A29G A37C G68C C85A A106U U134C | ≤ -4.2 |
| A29G A39G U82A G86U U135C | ≤ -4.2 |
| A29G A41C | -3.63 |
| A29G A41C A60U C85G G86U C116G G133C A142G A150G | ≤ -4.2 |
| A29G A41C U102A G141U G152A | ≤ -4.2 |
| A29G A47C U55G | ≤ -4.2 |
| A29G A47G G50C G70A G74A C85A C108G | ≤ -4.2 |
| A29G A49C A64G G83C C95U C108U C114G U135G G136U G152A | ≤ -4.2 |
| A29G A52C C93A U148A | ≤ -4.2 |
| A29G A52C G92U A107U G133U G141A G143A | ≤ -4.2 |
| A29G A60C G80A A121U G141U | ≤ -4.2 |
| A29G A60C U61A C63U G68C U102G A110G U127A | ≤ -4.2 |
| A29G A60G C95G C149G | ≤ -4.2 |
| A29G A60U C131G | ≤ -4.2 |
| A29G A66G C87G U101G A107G A115G A119G A147C | ≤ -4.2 |
| A29G C35G U56G G68A G81A C99A C114A G143C | ≤ -4.2 |
| A29G C43U A66C C96U C103A | ≤ -4.2 |
| A29G C43U U45A A52C C75G A91U A115G U151G | ≤ -4.2 |
| A29G C51G U56A C93A C95G C149G G152A | ≤ -4.2 |
| A29G C57A G58U C95U C125G | ≤ -4.2 |

| Variant | polymerase ribozyme fitness (log ratio) |
| --- | --- |
| A29G C57U G80A U111C C118U | ≤ -4.2 |
| A29G C87A A110C G141U | ≤ -4.2 |
| A29G C95G C118G G133A | ≤ -4.2 |
| A29G C105G U146G | ≤ -4.2 |
| A29G C132G | ≤ -4.2 |
| A29G G34A C35G C87U C95G | ≤ -4.2 |
| A29G G42A G84U C87A G128A | ≤ -4.2 |
| A29G G46C G67C A121U | ≤ -4.2 |
| A29G G48A C75U | ≤ -4.2 |
| A29G G50C G71U C95U C114A A138G C149U | ≤ -4.2 |
| A29G G58U C95A C99A G143U | ≤ -4.2 |
| A29G G59A U77A C93U G100A U109G C116U G126U | ≤ -4.2 |
| A29G G68A G83C C105A G141C | ≤ -4.2 |
| A29G G70A A120U G143A A150C | ≤ -4.2 |
| A29G G86U | ≤ -4.2 |
| A29G G86U G143A | ≤ -4.2 |
| A29G U33C U53A C79U A113U | ≤ -4.2 |
| A29G U45G C96G | ≤ -4.2 |
| A29G U55G A91G C95A U101G | ≤ -4.2 |
| A29G U56A C76A C96G | ≤ -4.2 |
| A29G U56A G59U G84A A98G A107U | ≤ -4.2 |

| Variant | polymerase ribozyme fitness (log ratio) |
| --- | --- |
| A29G U78G G84C | ≤ -4.2 |
| A29G U102G | ≤ -4.2 |
| A29G U144A | ≤ -4.2 |
| A29U A30C U78C C87U A89U | ≤ -4.2 |
| A29U A37C G124C | ≤ -4.2 |
| A29U A39U U55A C79A C93G | ≤ -4.2 |
| A29U A40G A41U | ≤ -4.2 |
| A29U A40U A47G U77A U82C G92U A119C C125U U144C | ≤ -4.2 |
| A29U A41C A52C C87U U102C G136A G143C U146A | ≤ -4.2 |
| A29U A41C C51U G70A | ≤ -4.2 |
| A29U A41G C75U C123U G126A | ≤ -4.2 |
| A29U A41U C69U C95A C118G C125U U148A | ≤ -4.2 |
| A29U A47U A60G G83U G84U U144A | ≤ -4.2 |
| A29U A49C C63U C116U G133C U139A U146A | ≤ -4.2 |
| A29U A52C C57U C87G G126C | ≤ -4.2 |
| A29U A52C G58C C79A G84A A142G | ≤ -4.2 |
| A29U A60C A66U G80A G140U G141A | ≤ -4.2 |
| A29U A64U G80A | ≤ -4.2 |
| A29U A66G U78A C93G C99A | ≤ -4.2 |
| A29U A66U C79A G83A C96A A142U | ≤ -4.2 |
| A29U A91C C132U | ≤ -4.2 |
